The other results are listed elsewhere or left out.

In this experiment the test system is PfHDP1 homeodomain (GST-tagged). Description: gcPBM binding intensity (ln(normalized median fluorescence intensity)); higher = stronger DNA binding. The essentials:
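Probes on an Agilent 4 × 180k array were primer-extended, double-stranded and 36 bp long, taken from intergenic genomic regions, with negative controls added. GST-tagged P. falciparum DNA-binding domains from E. coli, about 25 μg on average, were applied to the array for 1 h in 1× PBS containing 1% milk, 0.2 mg/ml BSA, 0.5% salmon testes DNA and 0.03% Triton X-100. Binding intensity, obtained after Alexa488 anti-GST antibody detection and a 488 nm scan, is the highest Masliner-normalised natural-log median intensity across replicate spots of either probe orientation.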
As to “TCATTAAAGGAAAAATGTACGTATAAATAAATATAT [XGTACX_site2587]”, the “gcPBM binding intensity (ln)” value was 6.49.
Under “TGTGTTTATACGTTTTGTACATATTTTTATTTTGTA [XGTACX_site6425]” stands 6.74; under “TTTACATCAACCTTTTCACACATTCATATACAGATA [CACACA_site6152]”, 7.15; under “TTTTTTATATTTAAACTTCACATGGTTTTCATTTAT [XGTACX_negctrl_site291]”, 6.47.
Under “ATATGAAATATATAAATATGTTTATATATATATATA [GTGCAC_negctrl_site94]” stands 9.06.
In the case of “TATAAAATACATTTATAATATATATATATATTTTTT [TGCATGCA_negctrl_site435]” it was 6.19; in that of “AATGTAAAATATAAATGTACATATATATATATATAT [XGTACX_site5071]”, 9.34.
Regarding “ATTTATTTATACAAAGTGCAATATTTTGTTAAAGTC [GTGCAC_site9618]”, the “gcPBM binding intensity (ln)” value came out at 8.15.
Under “AAACAAAATATGGTTCATGAGCAAAAGTTTATTTTG [XGTACX_negctrl_site531]” stands 8.18; under “CTCTTTTCTTATAATACACACAGTAATATATATATA [CACACA_site1520]”, 8.38.
Under “ATAAATCTACACCGCACACAAAAACAACAAATATTA [CACACA_site5396]” stands 7.05; under “AATGAATATATATAAATATATATATATATATATATA [CACACA_negctrl_site1494]”, 9.32.
On to “ATATTTGTATAAATTGCACACTTTATTTTTTTTAAG [CACACA_site1558]”, for which the “gcPBM binding intensity (ln)” value was found to be 9.86.
In the case of “ATGTTATTACATAATTGTACATTTTGAGCAATTAAG [XGTACX_site4640]” it was 9.33; in that of “AAACGTAACATATATATATATATATATAAGATATAT [CACACA_negctrl_site126]”, 7.32; in that of “AAAAGAATAATAATTTATGTATATTAATTAAAGAAT [XGTACX_negctrl_site402]”, 6.44.
Under “TTATATATATGTGTATGTACATATATATATATATAT [XGTACX_site1141]” stands 9.21; under “TATCATATATTATATGCACACATGTTTTTCAAGAAT [CACACA_site1892]”, 9.65; under “TATATAATATTCTACACACCAACAACAAACATATAT [CACACA_site567]”, 7.03.
In the case of “ATATATATATTTATATGTACATAATATAAAATTTCT [XGTACX_site3720]”, the “gcPBM binding intensity (ln)” value was determined as 7.7.
Regarding “ATATTCTGATTTTAGATGCACTTCGTTAACAAAATA [GTGCAC_site9958]”, the “gcPBM binding intensity (ln)” value stood at 7.22.
In the case of “ATAAGATGATTAATTACACACTTTATAGGATATTTA [CACACA_site1711]” it was 6.25; in that of “GGTATATGCATAAAGAGTACGTAACTTCTTTTTGTT [XGTACX_site6344]”, 7; in that of “AAATGTGTAAATATAATTAGTTTCACAAAACAAATA [GTGCAC_negctrl_site543]”, 6.15.
Under “TATTTATTATTATGTACACACTATATTAAAACATAA [CACACA_site4549]” stands 6.57; under “TATGTGAATCCTAAGTGTACACATCTTACATATATA [XGTACX_site2506]”, 7.05.
Under “AGTATACGCAGACACACACACACATATATATATATA [CACACA_site1735]” stands 9.19; under “TTAGCTTTTTTTTAAACATGCAACTACTTGATCCAC [TGCATGCA_site1017]”, 6.56.
Take “TTTTTTTTTTTTTCTTCACACACAGTACTACTATTT [CACACA_site8759]”: the “gcPBM binding intensity (ln)” value worked out at 6.43.
Under “CCAAAAAATATATGTAGTACTACATTATTAAATATG [XGTACX_site5128]” stands 6.95; under “TTATATTTATAAAGGTGTACCTTAAAATGATTTTAC [XGTACX_site3774]”, 6.11.
Under “ATATATTATATTAATTGTACATAAAAAAGAGAAAAA [XGTACX_site3366]” stands 6.65.
Under “AAAATTAAATAAAAATGTACAGAAATATTATATGAA [XGTACX_site5695]” stands 6.52; under “ATTAAGTACTAAAAAGTGCAGTTCGGTACTGTGCTT [GTGCAC_site9755]”, 6.42.
Take “AATATATAAATCAATAGTACATATATATATATATAT [XGTACX_site3898]”: the “gcPBM binding intensity (ln)” value is 9.29.
Under “AAGTACATACATAAAACACACACATATATATATATA [CACACA_site8541]” stands 9.39; under “AATAAAAAACATGAAAGTACTTTAAAAAAGGTAATA [XGTACX_site1897]”, 7.03; under “AGAAAAATTACAAAATGTACATAATGTGTTATTAAT [XGTACX_site7877]”, 6.33.
Under “ATGTATAAACAAAAGGGTACATATATATATATATAT [XGTACX_site2087]” stands 9.31; under “TTATATAAAGAATGTACACACAGAAATGCACCCACA [CACACA_site2282]”, 9.38; under “ATTAAATATGAGGGAACACACACATGATATATAAAT [CACACA_site8755]”, 6.84.
Under “TTTTAATTAAATAAATGTACTCATTCTATTATTTAT [XGTACX_site3032]” stands 6.02; under “ATAAATTTTTTATGAACACACAAATACCCACGCTCA [CACACA_site2659]”, 6.88.
Regarding “ATTTTATTTTTGTGCACACTGATAAATTGAAAAGAG [CACACA_site2948]”, the “gcPBM binding intensity (ln)” value amounted to 11.1.

These data come from the supplement of paper PMC11417369.
